{"source": "PubChem BioAssay AID540317", "about": "(National Center for Advancing Translational Sciences (NCATS), 2011)", "note": "Among all 390,000 compounds or so, about 2,200 (0.56%) were called active. The shares of active, inactive and inconclusive entries below differ from those in the screen. Calls come from the whole dose curve; as a rule, active = well fitted inhibition curve with a large enough effect; inconclusive = small, poorly fitted or top-dose-only effect; inactive = no such curve, though single readings can be large or run the other way. Potencies beside an inconclusive call are fits to weak or partial responses and may not hold up. Potency is the fitted concentration of half-maximal effect; tags give direction and shape of the fitted curve."}
{"target": "Chromobox protein homolog 1 (Homo sapiens) (UniProt P83916)", "sequence (P83916 whole entry, looked up)": "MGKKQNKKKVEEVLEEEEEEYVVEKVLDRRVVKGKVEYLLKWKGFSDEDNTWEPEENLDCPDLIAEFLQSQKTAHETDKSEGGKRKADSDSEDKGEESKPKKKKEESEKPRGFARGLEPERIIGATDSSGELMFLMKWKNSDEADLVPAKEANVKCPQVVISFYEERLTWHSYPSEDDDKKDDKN", "assay": "HTS for Inhibitors of HP1-beta Chromodomain Interactions with Methylated Histone Tails; note: nearly all actives have a fitted effect of over 70% in size", "details": "AlphaScreen HP1-beta / biotin-H3K9me3 peptide binding; series mostly up to 114 µM; activity change, negative = inhibition: at the top concentration", "summary_of_the_method": "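HP1-beta protein (50 nM final) preincubated 30 min at room temperature with biotinylated H3(1-18)K9me3 peptide (50 nM) in PBS pH 7.4, 0.01% Tween-20, then compound added for 30 min. AlphaScreen streptavidin donor/nickel chelate acceptor beads (10 ug/mL final), 30 min dark, luminescence read.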"}
{"smiles": "Cc1ccc(N2CCN(C(=S)c3ccc(N(C)C)cc3)CC2)cc1", "Potency": "inconclusive: 11.2 µM [inhibitor, partial curve, poor fit]"}
{"smiles": "COc1ccc(CCNC(=O)COC(=O)Cc2ccccc2[N+](=O)[O-])cc1", "activity change, negative = inhibition": "inactive: 17.6%"}
{"smiles": "COc1cccc(-n2cc(C(=O)NCc3cccc(Cl)c3)c3ccccc3c2=O)c1", "Potency": "inconclusive: 31.6 µM [inhibitor, single point]"}
{"smiles": "CCOc1ccc(CNC2CCCc3ccccc32)cc1", "note": "(stereo not given)", "Potency": "inconclusive: 39.8 µM [inhibitor, partial curve]"}
{"smiles": "COc1ccccc1C1=NNC(=Nc2cccc(S(=O)(=O)N(C)C)c2)SC1", "Potency": "inconclusive: 56.2 µM [inhibitor, single point]"}
{"smiles": "Cc1ccc([N+](=O)[O-])cc1N=C(c1ccc([N+](=O)[O-])cc1)N1CCOCC1", "Potency": "inconclusive: 70.8 µM [inhibitor, partial curve]"}
{"smiles": "CC(C)c1ccc(S(=O)(=O)Nc2ccc3oc4c(c3c2)C(=O)CC(C)(C)C4)cc1", "activity change, negative = inhibition": "inactive: 24.2%"}
{"smiles": "Cc1nc2c(C)cccn2c1/C(O)=C1\\C(=O)C(=O)N(CCN2CCOCC2)C1c1ccncc1", "note": "(stereo not given)", "Potency": "inconclusive: 20 µM [inhibitor, partial curve, poor fit]"}
{"smiles": "CSc1ccc(CNC(=O)c2ccccc2NC(=O)c2nsc3ccccc23)cc1", "activity change, negative = inhibition": "inactive: 3.95% [at 57 µM]"}
{"smiles": "O=C(Nc1ccccc1-c1nc2ccccc2s1)c1cc(Cl)cc(Cl)c1", "activity change, negative = inhibition": "inactive: 12.1% [at 57 µM]"}
{"smiles": "O=C1C2C3C=CC(O3)C2C(=O)N1N=C1CCCCC1", "note": "(stereo not given)", "activity change, negative = inhibition": "inactive: 19.4% [at 57 µM]"}
{"smiles": "Cc1c(CNC(C)CCc2ccccc2)c(C(=O)O)c(C)n1Cc1ccc(F)cc1Cl", "note": "(stereo not given)", "activity change, negative = inhibition": "inactive: 25.5%"}
{"smiles": "COc1cc(C(=O)N/N=C(\\C)Cn2nc([N+](=O)[O-])cc2C)ccc1O", "Potency": "inconclusive: 28.2 µM [inhibitor, single point]"}
{"smiles": "COc1cc2c(cc1OC)C(COc1cccc(C(F)(F)F)c1)NCC2", "note": "(stereo not given)", "activity change, negative = inhibition": "inactive: 8.62%"}
{"smiles": "Cc1ccc(NC(=O)CSc2nc(=O)n(CCCN(C)C)c3c2CCC3)cc1F", "activity change, negative = inhibition": "inactive: 0.326%"}
{"smiles": "OCCn1c(-c2ccccc2)csc1=Nc1ccccc1", "Potency": "inconclusive: 39.8 µM [inhibitor, partial curve, poor fit]"}
{"smiles": "S=C(NCc1ccccc1)C(=S)NCc1ccccc1", "Potency": "inconclusive: 12.6 µM [inhibitor, partial curve]"}
{"smiles": "C=CCN(CC=C)CCOc1ccc2ccccc2c1", "Potency": "inconclusive: 35.5 µM [inhibitor, partial curve]"}
{"smiles": "CC(C)Cn1c(=O)c2sccc2n2c(CCCC(=O)NCc3ccccc3Cl)nnc12", "activity change, negative = inhibition": "inactive: 35.5%"}
{"smiles": "CCN(CC)S(=O)(=O)c1cccc(C(=O)N/N=C/c2ccc(O)c(O)c2O)c1", "Potency": "inconclusive: 56.2 µM [inhibitor, partial curve, poor fit]"}
